Assay results: PubChem BioAssay AID743279 (National Center for Advancing Translational Sciences (NCATS), 2014)
Values joined by “and” are separate entries in the source; they are usually repeats but may differ in a detail not shown here. Equal entries are not always repeated. Among all 360,000 compounds or so, about 17,000 (4.7%) were called active. Inconclusive results, whose numbers are uncertain, are shown with a selection of clear calls. Rule as the data show it: active = activity change below about -50%; inconclusive = mostly about -30% to -49%; inactive = weaker than that.
% is scaled to controls: 0 for no effect and ±100 for the full control effect.

Assay: qHTS for Inhibitors of Inflammasome Signaling: IL-1-beta AlphaLISA Primary Screen
Details: THP-1 LPS/ATP IL-1B secretion, 16 h; at 57.5 µM, active compounds read low
Method in brief: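 Secreted IL-1B measured by AlphaLISA bead assay after 16 h compound exposure of THP-1 cells; compounds (final up to 57.5 uM) added 1 h before LPS (250 ng/mL) and ATP (1.25 mM) stimulation; lower signal means less secretion.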
For `Cc1nn(C)c(Oc2cccc(Cl)c2)c1C(=O)Nc1ccc(F)cc1`, the activity change was inactive: -6.96%. In the case of `O=C(NCCn1cc(SCc2ccc(F)cc2)c2ccccc21)c1ccccc1F`, the activity change is reported as inconclusive: -36.7%. With `C/C(=N\NC(=S)NC1CCCCC1)c1ccc(O)cc1` the activity change was inconclusive: -39.3%. For `COc1ccc(NC(=O)c2cn(-c3ccccc3)nc2SC)cc1`, the activity change was inconclusive: -37.4%. For `O=c1[nH]c(-c2ccccn2)nc2sc(-c3ccccc3)cc12`, the activity change was active: -102%. In the case of `Cc1cccn2c(=O)c3cc(C#N)c(=N)n(Cc4cccnc4)c3nc12`, the activity change is reported as inactive: 1.22%. For `CCc1nc2ccc(C(=O)Nc3cc(-c4ccccc4)ccc3OC)cn2c1N(C=O)CCC(C)C`, the activity change was active: -59.8%. In the case of `Clc1ccccc1-c1ccc(/C=N/n2cnnc2)o1`, the activity change is reported as inconclusive: -46.8%. In the case of `OCCN1CCN(c2cc(C(F)(F)F)nc3c(F)cccc23)CC1`, the activity change is reported as inconclusive: -43.2%. With `O=C(/C=C/c1cccc([N+](=O)[O-])c1)NCCSCc1cccc(Cl)c1` the activity change was inconclusive: -46.1%. With `CC(C)(C)C1CCC(=NNC(=S)Nc2cccnc2)CC1` (stereo unspecified) the activity change was inactive: 15.9%. With `Cc1ccc([C@H]2C[C@H](O)[C@@H](n3cc(COC(=O)c4ccccc4)nn3)CN2Cc2cccs2)cc1` the activity change was inconclusive: -33.6%. In the case of `Cc1noc(C)c1NC(=O)N(C)C[C@@H]1OCc2cn(nn2)CCCC(=O)N([C@H](C)CO)C[C@H]1C`, the activity change is reported as inactive: 17.6%. In the case of `CC(=O)c1cccc(OCc2cc(C(=O)N(C)Cc3cnccn3)no2)c1`, the activity change is reported as inactive: -3.39%. In the case of `O=C(NNC(=S)Nc1ccccc1)c1ccccc1[N+](=O)[O-]`, the activity change is reported as active: -73.1%. With `COc1cc2nc(N(CCCN(C)C)C(=O)c3ccc(S(=O)(=O)N4CCc5ccccc54)cc3)sc2cc1OC` the activity change was active: -101%. With `CCOCCN1CCN(c2c(CC)c(C)nc3cc(-c4cc(OC)cc(OC)c4)nn23)CC1` the activity change was inconclusive: -42.4%. In the case of `Cc1cc(C)c2[nH]c(=O)c(C(c3nnnn3CC3CCCO3)N3CCC(C)CC3)cc2c1` (stereo unspecified), the activity change is reported as inactive: -9.99%. For `CC(C)c1ccc(C2(C)NC(=O)N(CC(=O)NC3CCCC(C)C3C)C2=O)cc1` (stereo unspecified), the activity change was inconclusive: -33%. For `COc1ccc(S(=O)(=O)NCCSCc2cccc(C)c2)cc1Br`, the activity change was inconclusive: -44.5%. For `Cc1occc1-c1nnc(SCC(=O)NCCc2ccccc2)n1Cc1ccccc1`, the activity change was inconclusive: -46.3%. For `Nc1nc(SCC(=O)NC2CCCCC2)[nH]c(=O)c1-c1ccccc1`, the activity change was inconclusive: -42.2%. For `CCn1c(=O)cc(SCC(=O)N(C)Cc2ccccc2)c2ccccc21`, the activity change was inconclusive: -33.2%. For `CC(C)Oc1ccc(F)cc1-c1cc(C(=O)NCc2cccs2)[nH]n1`, the activity change was inconclusive: -38.8%. With `O=C1CN(CC(=O)NC2CCCc3ccccc32)CCN1` (stereo unspecified) the activity change was inactive: -3.17%. With `O=C1/C(=C/c2cccnc2)SC(=S)N1C1CCS(=O)(=O)C1` (stereo unspecified) the activity change was active: -93.1%. With `COc1ccccc1NC(=O)Nc1nc(CC(=O)N2CCN(c3ccccc3)CC2)cs1` the activity change was inconclusive: -46.2%. With `CCN(CC)CCNc1nc(SC)nc2sc3c(c12)CCN(C)C3` the activity change was inconclusive: -46.5%. For `Cc1ccc(S(=O)(=O)CCC(=O)OCC(=O)c2cc(C)ccc2C)cc1`, the activity change was inactive: 10.8%. For `O=[N+]([O-])c1cccc(CSc2nnc(Cc3ccccc3)n2-c2ccc(F)cc2)c1`, the activity change was inactive: 2.77%. For `CC[C@]12c3[nH]c4cc(CCC(=O)N(C)C)ccc4c3CCN1C(=O)[C@@H](CC(=O)NC(C)(C)C)C[C@@H]2C(=O)N1CCN(C(=O)c2ccco2)CC1`, the activity change was inactive: 7.54%. With `COC(=O)CNC(c1ccccc1)c1cc(Br)ccc1NC(=O)CCN1CCOCC1` (stereo unspecified) the activity change was active: -55.4%. In the case of `CCN(CC)C(=O)CSC1=C(C#N)C(c2cccs2)C=C(C)N1` (stereo unspecified), the activity change is reported as inactive: -12.8%. In the case of `COc1ccc(Cc2nnc(NC(=O)c3ccc(OC)cc3OC)s2)cc1`, the activity change is reported as active: -81.7%. For `Cc1ccc(NC(=O)CN(C)C(=O)CCC(=O)N2CCOCC2)cc1`, the activity change was inactive: -2.79%. With `CCC(=O)c1ccc(OCC(=O)OCC(=O)NC2CCCCCCC2)cc1` the activity change was inactive: 1.77%. In the case of `CC12C=CC(=O)C=C1CCC1C3CCC(O)(C(=O)CO)C3(C)CC(O)C12F` (stereo unspecified), the activity change is reported as active: -56.7%. In the case of `O=C(O)/C=C/c1ccc2ccccc2n1`, the activity change is reported as active: -71.2%. For `O=c1[nH]c(N/N=C/c2ccc(O)cc2)nc2ccccc12`, the activity change was inactive: 63.2%. With `CC(C)OCCCNC(=O)c1c(N)n(/N=C/c2cccs2)c2nc3ccccc3nc12` the activity change was inactive: -28.6%. With `O=C1c2cccc3cc([N+](=O)[O-])cc(c23)C(=O)N1CC1CCCO1` (stereo unspecified) the activity change was active: -72.5%. With `Cc1cc(Cl)c(S(=O)(=O)NCC2CCCO2)cc1OCC(=O)NC1CCCCC1` (stereo unspecified) the activity change was inactive: -25.2%. In the case of `Cc1ccc(OCC(=O)Nc2sc3c(c2C#N)CCC3)cc1`, the activity change is reported as inconclusive: -30.2%. For `O=c1n(Cc2ccccc2)c2cc(Cl)cnc2n1Cc1ccccc1`, the activity change was inconclusive: -31.7%. With `CCOc1ccc(C(=O)c2cnc3ccccc3c2N2CCN(CC)CC2)cc1` the activity change was inconclusive: -32.7%. For `Cc1cccc(-c2cnc(C(O)c3ccc(Cl)cc3C)[nH]2)c1` (stereo unspecified), the activity change was inactive: -7.57%. With `CCOC(=O)CSC1=NC(=O)/C(=C/c2ccc(Br)cc2)S1` the activity change was active: -63.6%. In the case of `CN1C(=O)/C(=C2\SC(N)=NC2=O)c2ccccc21`, the activity change is reported as inactive: -18.2%. For `CC1CCCC(N2CCN(C(=O)c3ccc([N+](=O)[O-])cc3)CC2)C1` (stereo unspecified), the activity change was inconclusive: -37.2%. In the case of `COC(=O)c1ccc(Nc2cc(C)nc3ccc(C)cc23)cc1`, the activity change is reported as active: -92.6%. In the case of `O=C(Nc1cccc(Cl)c1)Nc1nc(-c2ccccc2)cs1`, the activity change is reported as inactive: 21.4%. With `CCN(CC)CCNC(=O)c1ccc(NC(=O)c2cc(-c3ccncc3)nc3ccccc23)cc1` the activity change was inconclusive: -32.5%. For `C=CCC[C@@H](Cc1ccc(F)cc1)C(=O)OC[C@@H](C)NC(=O)[C@@H](CC=C)CC(=O)N[C@H](CO)Cc1ccccc1`, the activity change was inconclusive: -40.1%. With `CC1CCN(C2=NC(=O)/C(=C/c3ccccc3F)S2)CC1` the activity change was active: -99.2%. In the case of `N#CCCN1CCCc2cc(N=Nc3ccc(C(F)(F)F)cc3)ccc21`, the activity change is reported as inconclusive: -49.8%. With `CCN1CCN(CCCNC(=O)c2cc3c(=O)oc4ccc(C)cc4c3s2)CC1` the activity change was inconclusive: -49.6%. In the case of `O=C1O[C@@H](c2ccccc2)C[C@@H](O)[C@H](O)CCCCc2ccccc21`, the activity change is reported as inactive: -8.81%. With `Oc1c(Br)cc(Br)cc1/C=N/N1CCN(Cc2ccccc2)CC1` the activity change was inconclusive: -35.6%. With `CCCCCc1ccc(S(=O)(=O)NCCc2ccncc2)cc1` the activity change was inconclusive: -42.7%. For `CCOc1cc(/C=C2\N=C3CCCCCN3C2=O)ccc1O`, the activity change was inconclusive: -39.8%. In the case of `CN(CC(=O)Nc1ccc(Cl)c(C(F)(F)F)c1)C(=O)c1cccs1`, the activity change is reported as inconclusive: -39.1%. In the case of `c1ccc(COC(CN2CCCCCC2)CN2CCCCCC2)cc1`, the activity change is reported as inactive: -19.5%. In the case of `CN(C)CCCN(Cc1cc2cc3c(cc2[nH]c1=O)OCO3)C(=S)NCc1ccco1`, the activity change is reported as inconclusive: -36.5%. In the case of `O=C(/C=C/c1ccc2c(c1)OCCO2)c1ccc(O)cc1`, the activity change is reported as active: -103%. With `O=C(O)COc1ccc(/C=C/C(=O)c2ccc(C3CCCCC3)cc2)cc1` the activity change was active: -101%. With `CSCCC(C(=O)NCc1ccccc1)n1c(C2CCN(C(C)=O)CC2)nc2ccccc21` (stereo unspecified) the activity change was active: -52.1%. In the case of `O=C1CCN(Cc2ccccc2)CCN1[C@H](COc1ccccc1)Cc1ccccc1`, the activity change is reported as inconclusive: -48.6%. In the case of `CCCCC(=O)Nc1ccc(N2CCN(c3ccc(F)cc3)CC2)cc1`, the activity change is reported as inactive: 10.5%. For `CCOc1ccc2nc3c(cc2c1)CN(CCCO)C(=NCCOC)S3`, the activity change was inconclusive: -42.2%. With `C#Cc1ccc(CN2CCC(Oc3cc(C(=O)NC4CC4)ccc3OC)CC2)cc1` the activity change was inactive: -9.34%. With `COc1cccc(NC(=O)C(NC2CCCC2)c2ccccc2)c1` (stereo unspecified) the activity change was inactive: 13%. With `CN(C)c1ccc(C(C[N+](=O)[O-])c2c(N)n(C)c(=O)n(C)c2=O)c(F)c1C#N` (stereo unspecified) the activity change was active: -63.3%. With `Cc1ccc(N(CC(O)CN2CCCCC2)S(=O)(=O)c2ccccc2[N+](=O)[O-])cc1` (stereo unspecified) the activity change was inconclusive: -45.5%. For `Brc1ccc(C2C3=C(Nc4ncnn42)c2ccccc2OC3c2ccncc2)cc1` (stereo unspecified), the activity change was inconclusive: -43.9%. For `Cc1ccc(OCCCN2C(=O)C(=O)c3cc(C)ccc32)cc1`, the activity change was inconclusive: -34%. In the case of `COc1ccc([N+](=O)[O-])c(OC)c1C(=O)Nc1ccc(F)cc1F`, the activity change is reported as inconclusive: -39.3%. For `Cc1ccc(C(C(=O)NCc2ccccc2)N(C(=O)c2csnn2)c2cccc3ccccc23)o1` (stereo unspecified), the activity change was inconclusive: -31.3%. In the case of `COc1ccc2c(c1)c(CC(=O)Nc1cc(C)ccc1C)c(C)n2C(=O)c1ccc(Cl)cc1`, the activity change is reported as inactive: -6.26%. For `Cc1cccc(-c2nnc(SCC(=O)Nc3nc4c(s3)CCCC4)n2C)c1`, the activity change was inconclusive: -40.9%. In the case of `Cc1nccc(-c2ccc(-n3c(C)ccc3C)cc2)n1`, the activity change is reported as inconclusive: -42.9%. In the case of `CCCCC(c1nc2ccccc2[nH]1)n1c(-c2ccccc2)nc2cc(C)c(C)cc21` (stereo unspecified), the activity change is reported as inactive: 0%. For `CC1=C(/C=C/C(C)=C/C=C/C(C)=C/C(=O)Nc2ccc(O)cc2)C(C)(C)CCC1`, the activity change was active: -72.1% and active: -76.7%. In the case of `N#CC1C(=N)Cc2ccccc2-c2ccccc21` (stereo unspecified), the activity change is reported as inactive: -16.6%. In the case of `COc1ccc(C(=O)Nc2ccc3[nH]ncc3c2)cc1`, the activity change is reported as inconclusive: -41%. In the case of `Cc1ccc2c(c1)C1CN(C)CCC1N2C(=O)c1ccccc1NS(=O)(=O)c1cccc(C(F)(F)F)c1` (stereo unspecified), the activity change is reported as inactive: -4.91%. For `Cc1ccc(O)c(NC(=S)NC(=O)CC(C)C)c1`, the activity change was inconclusive: -36.1%.
